The test system of the test is CEM cells HIV-1 protection, formazan growth assay. Description: NCI AIDS Antiviral Assay. As to conditions: measured here: growth of uninfected CEM cells. Put shortly:
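Protection of CEM cells against HIV-1 was scored from cell growth (soluble formazan) across five concentrations, with parallel uninfected cells. Lack of protection may reflect toxicity.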

The source holds more than one record for some entries. Only these are listed. The source may hold further records. The records of an entry repeat one measurement (runs, samples, wells, individuals or studies). A tag in brackets gives the origin of a value. The letters are not those of the source and start again with each entry.

`O=S1Cc2nc3ccccc3n2C1c1c(F)cccc1F` (configuration not stated): the IC50 is 9.33 µM [sample A] and > 117 µM [sample B]. Regarding `Cc1nc2c(Br)cc(Br)cc2c(=O)n1-c1ccccc1NC1OCC(O)C(O)C1O` (configuration not stated), the IC50 is 67.6 µM [sample A] and 3.09 µM [sample B].

These data come from PubChem BioAssay AID179 (DTP/NCI, 2004).
